Assay results published in the supplement of paper PMC3334620.
In all, about 33,000 sequences were measured (“E-score (-0.5 to 0.5)”: median about -0.021, highest 2% from about 0.32 on). The list shows a part of the results.

The sequences below were run against T1, Zap1 (UniProt P47043) (assay: PBM E-score (8-mer binding enrichment) (E-score (-0.5 to 0.5)); higher = stronger / more preferred TF binding; most listed sequences are background and not binding sites). Details: protein concentration: 200 nM; construct: GST-full length.
T1 sequence: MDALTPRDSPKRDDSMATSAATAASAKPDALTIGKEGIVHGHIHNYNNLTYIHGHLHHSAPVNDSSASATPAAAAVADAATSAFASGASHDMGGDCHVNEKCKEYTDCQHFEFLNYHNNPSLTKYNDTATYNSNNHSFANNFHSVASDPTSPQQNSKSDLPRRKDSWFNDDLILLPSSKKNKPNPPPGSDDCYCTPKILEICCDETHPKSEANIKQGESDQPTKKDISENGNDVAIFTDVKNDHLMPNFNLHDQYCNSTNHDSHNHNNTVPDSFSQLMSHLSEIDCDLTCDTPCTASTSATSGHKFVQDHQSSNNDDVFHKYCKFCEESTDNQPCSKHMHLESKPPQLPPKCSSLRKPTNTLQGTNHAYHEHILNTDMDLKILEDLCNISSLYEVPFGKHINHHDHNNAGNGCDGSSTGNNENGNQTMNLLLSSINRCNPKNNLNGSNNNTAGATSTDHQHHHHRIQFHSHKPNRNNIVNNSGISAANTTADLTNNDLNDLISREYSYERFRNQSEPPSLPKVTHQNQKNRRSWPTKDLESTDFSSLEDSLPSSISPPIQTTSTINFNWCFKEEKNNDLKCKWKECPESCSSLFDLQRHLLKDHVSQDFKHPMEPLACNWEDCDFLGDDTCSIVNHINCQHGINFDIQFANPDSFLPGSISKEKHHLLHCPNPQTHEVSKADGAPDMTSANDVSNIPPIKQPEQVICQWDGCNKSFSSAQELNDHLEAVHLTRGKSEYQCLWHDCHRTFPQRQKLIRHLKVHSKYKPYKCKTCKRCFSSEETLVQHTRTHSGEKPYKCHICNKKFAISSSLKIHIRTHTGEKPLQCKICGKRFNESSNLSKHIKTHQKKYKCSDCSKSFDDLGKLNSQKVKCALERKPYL
In short: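 Yeast transcription factors, full-length or as DNA-binding domains, were expressed with a GST tag using PURExpress in vitro transcription/translation. At about 100-200 nM they were applied to universal all-10-mer Agilent arrays, double-stranded by primer extension on fresh or once-stripped slides. Fluorescent anti-GST detected bound protein, and masliner normalised the scans. E-scores for ungapped eight-base words, pooled with reverse complements, came from the Universal PBM Analysis Suite.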

Sequence	PBM E-score
CCGTAATC	-0.0258
CACTTGGC	-0.00224
CCGTCGTA	-0.0502
CCTTAGAG	0.0407
AGGCGATG	-0.179
CGAACTCG	0.0289
CCTCAGCA	-0.192
GAGAGGAC	-0.135
GAACTGTC	-0.169
TTATAAAA	0.13
ACTCGCAG	-0.0636
CTTTAGAC	0.0999
GTCTATTA	-0.035
CGTGGTTC	0.185
CACCCGTG	0.0546
AATTCCCC	-0.0785
TCCTGTCA	-0.0378
CTAGGAAG	-0.0365
ACTGCCCC	-0.255
AAGTTCGC	-0.0808
TCAGTAGA	-0.0962
AAGTACAT	0.0711
GGAATGAA	0.116
CAGAATAA	0.133
AACCCTAT	0.441
AGTTCAAA	-0.0313
AGGCCTAG	-0.1

Sequence	PBM E-score
GCATTATA	-0.0175
CTGCAGAC	-0.0745
ATAAATAG	0.0999
CCAGATAC	-0.0905
GCTCAATA	-0.122
CAATCTAC	-0.177
GGTGCGAC	-0.0899
GCTCGGCA	-0.17
CTGAGTAC	-0.149
CCGGCATA	-0.254
CGTCTAAA	0.182
AAGAGTTC	-0.0846
GAAGATTC	-0.188
GATCGAAA	0.111
GAAAGTTC	-0.0509
ATAAGGTA	0.231
TCCTTCGA	0.0347
GTACTCTA	-0.0135
CCGCCTAA	-0.0281
GCTGCCGA	-0.0487
AGTAGGTA	-0.0118
ACAACGCT	-0.162
CTTTCGCC	-0.179
GAACACTC	-0.0378
AATTGCGA	-0.0863
AACGTCCT	-0.0921
CGGTAGAC	0.174

Sequence	PBM E-score
AGACAAGA	-0.0243
TAACACAA	0.175
ACAGGTCC	0.00876
AGCTTGGA	-0.0874
AATATCAA	0.078
ATCCGGAC	-0.259
AGATCTTC	-0.00348
ATTGCTGA	-0.1
GATAGAAC	0.0235
CCCGGGGA	-0.0723
CTGTAATA	0.0621
ATAAAAAT	0.129
ATTGGTTG	0.186
CTCGAGCC	-0.0275
AAGAACGC	-0.0711
GAATGTAC	-0.138
CCCCATTA	-0.0568
ATTTACAC	-0.122
CCGGCCAG	-0.148
ATACTAGC	-0.108
GATGACTA	-0.145
GGATCAAC	0.0198
CAATGTAC	0.0929
CGGCTAAC	-0.0659
GATTTCCC	0.00718
